± gives the standard deviation of the averaged measurements. The list shows a part of the results.
The sequences below were run on PfAP2-LT AP2 domain (GST-tagged) (assay: gcPBM binding intensity (ln(normalized median fluorescence intensity)); higher = stronger DNA binding).
In short: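 The binding buffer was 1× PBS containing 1% milk, 0.2 mg/ml BSA, 0.5% salmon testes DNA and 0.03% Triton X-100. In it, GST-tagged P. falciparum DNA-binding domains expressed in E. coli were applied for 1 h to an Agilent 4 × 180k array of primer-extended double-stranded 36-bp intergenic genomic probes plus negative controls. Binding intensity, read with Alexa488 anti-GST antibody and a 488 nm scan, is the highest Masliner-normalised natural-log median intensity across replicate spots of either probe orientation.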
With “AACCACATACATATAACACACATATACAATCTATAT [CACACA_site1987]” the “gcPBM binding intensity (ln)” value was 9.36 ± 0.47. “AAATAACACTAATGATGTACTCAACTATTTATAATT [XGTACX_site8183]” was tested, and the “gcPBM binding intensity (ln)” value was 8.71 ± 0.47. In the case of “TATGAAATTTTAATTACACACAGGAAAATAAAATGG [CACACA_site4935]”, the “gcPBM binding intensity (ln)” value is reported as 8.8 ± 0.36. In the case of “TAAAAAAAATATTTTTGTACGAATTAAATTTTTTTT [XGTACX_site4838]”, the “gcPBM binding intensity (ln)” value is reported as 8.27 ± 0.48. In the case of “ACATATTTTTAATACACACTCAAAAAAGTACTTAAC [CACACA_site3014]”, the “gcPBM binding intensity (ln)” value is reported as 8.73 ± 0.4. For “TTTTTATAACTATATTATATAACTTTTGTACGAACT [CACACA_negctrl_site1423]”, the “gcPBM binding intensity (ln)” value was 8.7 ± 0.59. “ACATATAAATAAATAAATATATATATATATATATAT [GTGCAC_negctrl_site378]” was tested, and the “gcPBM binding intensity (ln)” value was 9.44 ± 0.28. “TATTTACACCTAATCACAAATAAAATAAAATCAAAT [CACACA_negctrl_site531]” was tested, and the “gcPBM binding intensity (ln)” value was 8.66 ± 0.47. For “GATAAGGTATTCAAATGTACAAAATGTTTTATATAA [XGTACX_site6863]”, the “gcPBM binding intensity (ln)” value was 8.65 ± 0.56. For “TAAATCAAAATAATTTAACACACAATTTTAATACTG [CACACA_site8744]”, the “gcPBM binding intensity (ln)” value was 8.7 ± 0.34. In the case of “AAATTATTAAGTGATATAATATTCTATAGATGGGGA [CACACA_negctrl_site168]”, the “gcPBM binding intensity (ln)” value is reported as 8.55 ± 0.43. For “TATATGATATAATATACACACATACAGATATATATA [CACACA_site4440]”, the “gcPBM binding intensity (ln)” value was 9.06 ± 0.32. In the case of “AGAGGTAGAGAGAAAACATGCATAATGATTTTCATA [TGCATGCA_site958]”, the “gcPBM binding intensity (ln)” value is reported as 8.79 ± 0.53. For “TAGAGGTATAAAATATGTACTTATAAAAACATGAAT [XGTACX_site8916]”, the “gcPBM binding intensity (ln)” value was 8.79 ± 0.45. With “TTTTCCAATTTAAAAGCATGCATCTGTTTTTTTTTT [TGCATGCA_site482]” the “gcPBM binding intensity (ln)” value was 8.61 ± 0.47. “TTTTTCATTTCTGCATTTATTTATAAATAAATATTT [CACACA_negctrl_site368]” was tested, and the “gcPBM binding intensity (ln)” value was 8.56 ± 0.47. For ATATATATTATATAAGTGCATAATATTCTTTCTTTT, the “gcPBM binding intensity (ln)” value was 8.59 ± 0.39. “TATATATTTTGTGTCTGTACACATATTATTAATTCC [XGTACX_site7507]” was tested, and the “gcPBM binding intensity (ln)” value was 8.85 ± 0.52. For “TTTTTTTATCAATGTTGTACTTTTTTTTTTTTCCAT [XGTACX_site8864]”, the “gcPBM binding intensity (ln)” value was 8.64 ± 0.56. For “TATAAGAGAATATATACACACAAAAATATATACAGT [CACACA_site1668]”, the “gcPBM binding intensity (ln)” value was 9.33 ± 0.34. With “TACACGCATGGACACACACACACACCCATATATATA [CACACA_site4522]” the “gcPBM binding intensity (ln)” value was 10.3 ± 0.35. In the case of “TTCAAATATAAATACACACACATAGCTACAAAATAA [CACACA_site4172]”, the “gcPBM binding intensity (ln)” value is reported as 9.51 ± 0.35. For TTCTTAAAAGGAAAGGTGCAACTTTATCATTTTCTT, the “gcPBM binding intensity (ln)” value was 8.49 ± 0.48. In the case of “TATCATATATAAAGAGGTACGTAAGAATAGAAAATT [XGTACX_site798]”, the “gcPBM binding intensity (ln)” value is reported as 9.06 ± 0.49. In the case of “TAAATACATAAATACACACACATATATTATATATAT [CACACA_site4310]”, the “gcPBM binding intensity (ln)” value is reported as 9.47 ± 0.23. “ATATTAACTATCATAACACACACAGTAGACATATTT [CACACA_site6941]” was tested, and the “gcPBM binding intensity (ln)” value was 9.31 ± 0.16. With “ATATATATATAAAGTTGTACATTTTTTATTTTTTCA [XGTACX_site7847]” the “gcPBM binding intensity (ln)” value was 8.74 ± 0.38. In the case of “AAATTAATTAAATATACACACATATATAAATATATA [CACACA_site391]”, the “gcPBM binding intensity (ln)” value is reported as 8.79 ± 0.39. In the case of “TTGTTTTTAGTTTATACACACCATATTAATATAATG [CACACA_site7452]”, the “gcPBM binding intensity (ln)” value is reported as 8.92 ± 0.47. In the case of “TTATATTATGGACACACACACAAAAAAAAAAAAAAA [CACACA_site7744]”, the “gcPBM binding intensity (ln)” value is reported as 9.32 ± 0.51. With “ATTTGGCATGGACACACACACACACCGACAGACATA [CACACA_site4491]” the “gcPBM binding intensity (ln)” value was 10 ± 0.27. “TATATATATATGTATACACACATATGTATGTTATGT [CACACA_site4053]” was tested, and the “gcPBM binding intensity (ln)” value was 9.57 ± 0.2. For “TTTGTTAATTATAAATGTACATATTATATATATATA [XGTACX_site8870]”, the “gcPBM binding intensity (ln)” value was 8.52 ± 0.44. In the case of “GCATAATATACTCTTACACACCATTTCTATATACAT [CACACA_site6799]”, the “gcPBM binding intensity (ln)” value is reported as 9.29 ± 0.49. “AAAATATATTATATATGTACATATTACGTTTTAATT [XGTACX_site2518]” was tested, and the “gcPBM binding intensity (ln)” value was 8.91 ± 0.35. With “CAATTTTAAGTAATCAATTTTTTTAAAAAACACAAA [CACACA_negctrl_site961]” the “gcPBM binding intensity (ln)” value was 8.21 ± 0.45. “TTAAAACCAAAACACAGTACATATATATATATATAT [XGTACX_site5668]” was tested, and the “gcPBM binding intensity (ln)” value was 9.71 ± 0.23. “TTAATATTAATATATTGTACATATATGCACATATTT [XGTACX_site6569]” was tested, and the “gcPBM binding intensity (ln)” value was 8.82 ± 0.4. “AACGTTCATATTTCCACACACAAAAAATAAATATAA [CACACA_site3344]” was tested, and the “gcPBM binding intensity (ln)” value was 9.2 ± 0.4. With “AATATTATAATATAAACACACAAAATTCAATTATAT [CACACA_site3789]” the “gcPBM binding intensity (ln)” value was 8.85 ± 0.41. For “AAAAATAAAGGGCGAAAAAAAAAAAAAAAAAAAAAA [GTGCAC_negctrl_site671]”, the “gcPBM binding intensity (ln)” value was 8.34 ± 0.47. With “CTTGTATTTAAACACACACACACTTTCTTTTTTTAA [CACACA_site5133]” the “gcPBM binding intensity (ln)” value was 9.37 ± 0.31. For “TTGATGATATAAAAAAGTACTTATATTATATTATAT [XGTACX_site6492]”, the “gcPBM binding intensity (ln)” value was 8.56 ± 0.49. In the case of “TTTCCTATTTAATATAGTACATAAGAAATAATTTTA [XGTACX_site5952]”, the “gcPBM binding intensity (ln)” value is reported as 8.05 ± 0.32.

Source: the supplement of paper PMC11417369
